# Results: the BET-seq Pho4 binding data (Le et al. 2018)
# The other results are listed elsewhere or left out. These are noisy estimates, calculated here from bound and input reads.
# Target: T1, Pho4 (S. cerevisiae) (UniProt P07270)
# T1 sequence: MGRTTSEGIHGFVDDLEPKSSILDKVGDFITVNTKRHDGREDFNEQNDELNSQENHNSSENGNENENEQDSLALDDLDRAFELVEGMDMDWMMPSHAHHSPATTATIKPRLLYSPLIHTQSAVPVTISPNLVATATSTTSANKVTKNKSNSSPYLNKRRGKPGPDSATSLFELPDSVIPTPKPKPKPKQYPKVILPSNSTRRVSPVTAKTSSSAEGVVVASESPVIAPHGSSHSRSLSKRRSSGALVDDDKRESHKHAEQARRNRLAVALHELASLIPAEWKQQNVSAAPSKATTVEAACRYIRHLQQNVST
# Assay: relative binding free energy (BET-seq); higher = weaker binding
# Conditions: reference: library average
row,Sequence,relative binding free energy [kJ/mol]
1,GATTACACGTGCTGTG,1
2,TATCTCACGTGTTTTG,0.753
3,GTAATCACGTGGGTCG,-0.0418
4,CATTTCACGTGTTTAG,1.3
5,AGCGGCACGTGGTGTG,-1.63
6,ATGGACACGTGTGTGA,-0.377
7,GTGTTCACGTGATTTG,1.8
8,GATTACACGTGTGGGC,0.92
9,GAGGTCACGTGTGAGC,1.51
10,GCGGGCACGTGTGCTG,-0.544
11,GTGCACACGTGTGTTT,-0.126
12,GTGCACACGTGGTTGG,0
13,AGAAGCACGTGTGTTC,0.126
14,GTAGTCACGTGAAAGG,0.879
15,TGCAACACGTGGTTGA,-0.293
16,CGGGGCACGTGAGAGG,1
17,TGAAACACGTGAGTGT,1.17
18,CGGTACACGTGGGTCT,0.251
19,GGCATCACGTGGGGGT,-0.335
20,TTGGGCACGTGGGATG,-0.293
21,TGTCTCACGTGGTTAG,-0.251
22,TGTGTCACGTGCCGGT,-0.544
23,TTCTTCACGTGAAGTG,1.46

row,Sequence,relative binding free energy [kJ/mol]
1,ATTGTCACGTGGTGCC,0.335
2,AACAGCACGTGTTGGT,-0.335
3,GTTTACACGTGGGGAC,0.962
4,GTATACACGTGTTCGT,0
5,GGGGGCACGTGGGGCC,-1.38
6,TTAAACACGTGTGAAG,0.335
7,ACTATCACGTGAGGGT,0.962
8,AAGGACACGTGCGGGT,0.126
9,CGTTGCACGTGGTGAA,0
10,AAGGTCACGTGAAGGC,1.05
11,GTTTGCACGTGTGAGA,0.46
12,GGGCACACGTGATCGG,0.795
13,CTTATCACGTGTGTTC,1.42
14,GTCGTCACGTGTACGG,0.502
15,AGTGTCACGTGTTACG,0.167
16,GGTTACACGTGTCGCG,1
17,TGGCGCACGTGTGTGG,0.126
18,AGGGGCACGTGCAGAG,-0.753
19,GGGTTCACGTGCTTCG,1.3
20,CATTGCACGTGAGTGT,0.544
21,GTTGTCACGTGAGAGC,0.962
22,TGCGTCACGTGGCCGG,-0.669
23,CGGGACACGTGTGGGA,0.209

row,Sequence,relative binding free energy [kJ/mol]
1,CATAGCACGTGGAAGT,0.46
2,CTGAGCACGTGGTTGT,-0.753
3,GCTATCACGTGGGGGT,-0.167
4,CTATGCACGTGAGGAG,1.05
5,TAGTACACGTGGAAAT,0.92
6,TGGTTCACGTGATAGT,1.55
7,CGGCTCACGTGATGGG,0.92
8,GGGCGCACGTGCAGTG,0.0837
9,GCATGCACGTGGCAGG,-0.0418
10,CTAGGCACGTGGGTCG,-0.879
11,TAGCGCACGTGGATAT,-0.209
12,TTTAGCACGTGTGCGG,-0.293
13,AGTTTCACGTGGTCAG,0.586
14,AGTTTCACGTGGATAT,1
15,ATTTACACGTGGGTCT,-0.46
16,GCAGGCACGTGTGGCG,0.46
17,CTTAGCACGTGAGTGG,0.209
18,TAGGGCACGTGGCGGA,-1.17
19,TGTTACACGTGATACT,1.17
20,AGTCTCACGTGTATGT,0.795
21,TAGGACACGTGCTTTG,-0.335
22,AACGACACGTGTGGTG,-0.377
23,TTTAGCACGTGAAGAA,1.05

row,Sequence,relative binding free energy [kJ/mol]
1,GAAGTCACGTGGGGAT,0.418
2,GGTGTCACGTGGGCAC,-0.0418
3,ATGAGCACGTGTAATT,0.544
4,CGTTTCACGTGCAGAG,1.38
5,TATGTCACGTGGTGCG,-0.0837
6,TCGTTCACGTGTTAGC,1.67
7,GTTCGCACGTGTTGCT,0.544
8,AATGTCACGTGAATAT,1.05
9,TTAACCACGTGATGGT,0.167
10,GGCAGCACGTGGTTGT,0.0837
11,GTATGCACGTGCTTTT,0.126
12,ATGGGCACGTGTGGGA,-0.209
13,GGGACCACGTGGGTCG,-0.879
14,TGTGCCACGTGGGCTG,-0.753
15,TGTCGCACGTGATATT,0.209
16,GGGATCACGTGTAAGC,1.63
17,CTGTTCACGTGATATA,1.26
18,ATACGCACGTGGGGCG,-0.92
19,GTCTTCACGTGATGAT,2.18
20,CGCGGCACGTGGGATG,-0.669
21,TGGGACACGTGCAAGT,-0.167
22,TTTGACACGTGTGCTT,0.0837
23,TGGGCCACGTGATTTA,0.251

row,Sequence,relative binding free energy [kJ/mol]
1,GTGTTCACGTGTTTGT,1.46
2,TAATACACGTGATTGT,0.837
3,ATTATCACGTGAGTCA,2.22
4,GGGGGCACGTGCGGTA,-1.09
5,TGATGCACGTGTTAAT,-0.251
6,AGGAGCACGTGGTTTT,-0.586
7,GATAGCACGTGGATGT,-0.753
8,TGGGTCACGTGTGTAC,0.502
9,GGGGTCACGTGTTAAT,0.795
10,ATGACCACGTGCGGGG,-0.586
11,TTTAGCACGTGTATAA,-0.586
12,GCGTGCACGTGAAATG,1.51
13,TGAGTCACGTGAATGA,0.962
14,GGTCACACGTGGTTGC,0.418
15,ATTCACACGTGTAGGT,-0.377
16,GATATCACGTGTTTTA,0.46
17,CGTTGCACGTGTTTTG,0.669
18,TGAAACACGTGTAATT,0.628
19,TGGTTCACGTGTGCTC,1.21
20,GGAAGCACGTGTGGGT,-0.586
21,TGGAACACGTGTATTT,-0.209
22,ATAGTCACGTGTTTGA,0.46
23,AAGAACACGTGGTAGG,0.167
